According to PMC12136788:
Some of the results follow.

B1: chr2:155483634:155483635:-_ENSMUSG00000038324_ENSMUST00000041059|perfect_dup|motif|central (ssRNA)
RNA: GGGAGUUCUACAGUCCGACGAUCGGUGACAGCCAGAAUCCGGCAGAAAUUAGCGAGCUGCUGCUGAUCGAAAUUGGAUACGGAGGAACUCAGAUUGGGGACUUCAUCUAGUCGGAUCAUUUCCUUUUUAACACCCAAAAUAUCCAACAGAGGAUUGAGCAUCA
B2: 32422456_32422890_417_3pUTR_ENSG00000152683_ENST00000406369|human|control|control (ssRNA)
RNA: GGGAGUUCUACAGUCCGACGAUCUUCAAUGAGCAUAUAUGUAAUACAAAGAGCAAAUGCUCCAGCAAGAUCAAUCAAAACAAAUGGAUUCAUUCGGGGAAGGAAGAUACUGCUAAGUCCCGGAAUAAUUCCACACAAGCUUCGCAACAGAGGAUUGAGCAUCA
B3: chr17:3572670:3572671:+_ENSG00000127774_ENST00000248378|hu_hu|FALSE|FALSE (ssRNA)
RNA: GGGAGUUCUACAGUCCGACGAUCGUAGGUGAAGAGGCCCCCGAUGAGGCCUCCUGUAAAGAGAGGUCUCCGUGAUUUGAAAUAUUUGUUCCACCUCCUUCCCGCCUUGAGAAUGAGGAGCAGGGAGAGCAGGACGGAGGCGAGCAACAGAGGAUUGAGCAUCA
B4: chr6:83912051:83912052:+_ENSMUSG00000030016_ENSMUST00000032088|mus_hu|FALSE|FALSE (ssRNA)
RNA: GGGAGUUCUACAGUCCGACGAUCUGCCUUUUUAUGAGAUGAUAAAAUCAAGAUAUCCUUUAAACCACCAAAUGGUUUUGCUAAGUCAUAAACUUCUUCUACAGAAUAUCCUUUAUUAGGCAAAUUAGAGACAAGCAUCACACACAACAGAGGAUUGAGCAUCA
B5: chr2:217001844:217001845:+_ENSG00000079246_ENST00000392132|hu_hu|hu_hu_hu_mus_False|1_108 (ssRNA)
RNA: GGGAGUUCUACAGUCCGACGAUCACCGACUUGAGGAUUAGAUCUUUUGUCAUAAGCAUAUCGGACGAUGGCGACCAUGUUUAACUCAUCCAAAGCAUGAACGAGAGAGGAAAGGGCAACAGCUGCCGCCUCAUCAUCUCUUGCCAACAGAGGAUUGAGCAUCA
B6: chr3:100845581:100845582:-_ENSMUSG00000027864_ENSMUST00000102694|mus_mus|FALSE|FALSE (ssRNA)
RNA: GGGAGUUCUACAGUCCGACGAUCGCUUGUGUGGGGUGCAUCUGCUACUGACUCUAAACCUGGACCCCACCUGGGCUAGAGCUACCUUCUCAAAAUCUCAUUACACGAGCAGCCCCCAAGGUGGGCUCAAAACAAGCAGAGGAACAACAGAGGAUUGAGCAUCA
B7: chr11:106642794:106642795:-_ENSMUSG00000020719_ENSMUST00000021062|mus_mus|motif|central (ssRNA)
RNA: GGGAGUUCUACAGUCCGACGAUCACUUUCCUUGUGUAAAAAUAAACACCAAAACAAAAAUCCCCCCCAAAAACACGGUCGGAGCCAAGUUGUACAUGACAUUAUAUAUGUAAAAUAAAGUACAAUUUCACUUAAUUCAGUCUUCAACAGAGGAUUGAGCAUCA
B8: chr5:135510151:135510152:+_ENSG00000113658_ENST00000545279|hu_hu|FALSE|FALSE (ssRNA)
RNA: GGGAGUUCUACAGUCCGACGAUCGAGGCUGCAGCUGCUGGGAAUCUUACAGACAGUGGUGGGAUGAAAGCCAUGAUGAAAGUUGCAGUUCCUACUCUGUACAAAUAUGCUGCUGUCACUGAGGCAUUCCGCAUACACCUCUCCCAACAGAGGAUUGAGCAUCA
B9: chr2:241070358:241070359:-_ENSG00000172428_ENST00000607357|hu_mus|FALSE|FALSE (ssRNA)
RNA: GGGAGUUCUACAGUCCGACGAUCCAGAGACAUCAGUACCCAGUUGGUUCAGACAGUUCCUCUAUUGGUUGACAAGGUCUUCAUUUCUAGUGAUAUCAACACGGUGUCUACAAUCAGCUGGUCGUGUCCCGAGAGACUCCAGACCAACAGAGGAUUGAGCAUCA
B10: chr4:25749455:25749456:-_ENSG00000091490_ENST00000264868|hu_hu|hu_hu_hu_mus_False|18_38 (ssRNA)
RNA: GGGAGUUCUACAGUCCGACGAUCGCACUAUGACCUCUAGAAAAAUCCACAGGGGGAAAAAAUGUAAACCAAUGUACAAUGUUAUCGCCUUCCCUGUAUUUCCAGGCUUUGUCUCAAUAUUUCAAGGAGCUGCUGGAUUUGGGACAACAGAGGAUUGAGCAUCA
B11: 109257482_109257602_1019_CDS_ENSMUSG00000020611_ENSMUST00000020930|mouse|control|control (ssRNA)
RNA: GGGAGUUCUACAGUCCGACGAUCAAAUUCUAGGAAAUAGUCUUUGAUGCUAACAACUUGCACUUUCUCCUCGAGCAAGUCUGUCUUGUUUAAGAAGAGGAUUAUGGAGACGUUGCUGAAAACCCGAUUGUUGACAAUUGUUUCCAACAGAGGAUUGAGCAUCA
B12: chr6:31368937:31368938:+_ENSMUSG00000025609_ENSMUST00000026699|mus_hu|motif|central (ssRNA)
RNA: GGGAGUUCUACAGUCCGACGAUCGGGAGGAUAGUUGCUCUCUGAAGACCAUCUUGAAGAUUGGUCAUUUGGUUUGUCCACGGAAAUGUUCUCGGGAAGGUAGGUGGAGGAAAAGGAGCUCCACUUGUGUAGCGCGUAGGGGAGCAACAGAGGAUUGAGCAUCA
B13: chr1:165697146:165697147:-_ENSG00000143183_ENST00000464650|hu_hu|motif|central (ssRNA)
RNA: GGGAGUUCUACAGUCCGACGAUCUUGCUGGCUGCCAUUUUCACUCUAAUCAUACCCAAAAGGCUUAGAAAUAAUUCAAAACGGGAAAGAGGCCCAAGUAGUAAGGCUACCUAUGGCUCUUGCUACAAAACAGUUGCCAGUCUGCAACAGAGGAUUGAGCAUCA
B14: chr13:113657673:113657674:+_ENSMUSG00000021759_ENSMUST00000016144|mus_mus|FALSE|FALSE (ssRNA)
RNA: GGGAGUUCUACAGUCCGACGAUCAUGGAGAGUCGUGUGUGGAUCCUCUUCCUUUCUCUCUUUGUAAGAAUGUGUGUCCUUGAAGAAAUCGGAUACAUACAAAGCAACCAGUAUAGCCAUAGCAGCUCCCUGAAUGAGUCCAACCAACAGAGGAUUGAGCAUCA
B15: 111629782_111630603_1761_CDS_ENSG00000108039_ENST00000369680|human|control|control (ssRNA)
RNA: GGGAGUUCUACAGUCCGACGAUCGGGCUCAUCAGUGACAAUCAUGCCUGCCUCCAAGGGCUCAUCAGAGAAUGUUUUGUAACUGAUGCCGCAAGGACCCUCAUGGACAUUCAAAAAAGACCCAACACCAUGUCCAGUCCCGUGCAACAGAGGAUUGAGCAUCA
B16: chr14:21833301:21833302:-_ENSG00000092201_ENST00000216297|hu_hu|FALSE|FALSE (ssRNA)
RNA: GGGAGUUCUACAGUCCGACGAUCAUUGAUGCUGAAAACCAUUCCUUUCUUCAGUUUGUAUUGAUUUUUGCUAUUGAUUACUAGGGAGCCUUCACGGAAUUCAAUUCCCAUCCCAAACCCUAGGUUUUUGGUAAUUUUGUUCAGCAACAGAGGAUUGAGCAUCA
B17: chr2:9572718:9572719:+_ENSG00000119203_ENST00000238112|hu_hu|FALSE|FALSE (ssRNA)
RNA: GGGAGUUCUACAGUCCGACGAUCGACGUGACCUGCAUGGUAACACCAAAACUUGAUUCCCGCAACUUCCUUAACUUCAUGAAAGUUGAUAGUUUCAAUUUUGUCCAUGCUUUCUUCCAAAUCUGUCUCGGUAUACAGCAUGUCCAACAGAGGAUUGAGCAUCA
B18: chr3:20008827:20008828:+_ENSMUSG00000002428_ENSMUST00000002502|mus_mus|FALSE|FALSE (ssRNA)
RNA: GGGAGUUCUACAGUCCGACGAUCUGAGGCUUUAAGAGGUGUUUCUAUUAAAGACAAGAAUGUGGUAAACUGAGAAACAACUAAACUUUUUAUGUUGGGGUCCUUUGUCCGUAAUUCAAUCAAAGCAUGCAUUAGAGCAUUAAUCAACAGAGGAUUGAGCAUCA
B19: 95327714_95327975_828_CDS_ENSMUSG00000034088_ENSMUST00000170883|mouse|control|control (ssRNA)
RNA: GGGAGUUCUACAGUCCGACGAUCCUCCACUUCUAGCCUCUCUACAGCACGCUUGUCCUGCUCAGCAGAGAUUAGGAGGACUUCAUGGCGAGCUUUCUCGAUGCCUUCUUUGGUGCCAGUGAUCUUGAUCUGAUUACUGGGGUCCAACAGAGGAUUGAGCAUCA
B20: chr1:169100865:169100866:+_ENSG00000143153_ENST00000367816|hu_hu|FALSE|FALSE (ssRNA)
RNA: GGGAGUUCUACAGUCCGACGAUCGUGUAAAGCAUAUAGAUUAAGUGUAGGUCCCAUACGUAUGACAGUUUGUUCAAGACUAGUAGGUUUUUGUUUUUGUAUCUUUUUUUAACUUAUUAAAUGGCUAGUGGGAAAGAUUUGUGCCAACAGAGGAUUGAGCAUCA
B21: chr4:17845017:17845018:+_ENSG00000109805_ENST00000514176|hu_mus|hu_hu_hu_mus_False|28_58 (ssRNA)
RNA: GGGAGUUCUACAGUCCGACGAUCGCUCUCUUAACUUGUAUCUUCAUUAAGGAACUCUGCAAGGUUAAGUUUACUUUUUCUAGUGCUAGCUGUUUUGGCUCGUCUGGUAGUCUCAUCCUUCAUUUCUGAUGGUGGUUCAUGAUCCAACAGAGGAUUGAGCAUCA
B22: chr2:179515052:179515053:+_ENSMUSG00000000305_ENSMUST00000000314|mus_hu|mus_mus_mus_hu_False|68_88 (ssRNA)
RNA: GGGAGUUCUACAGUCCGACGAUCGCUGUCCCAUGCAGUCACCGUGAAGGCCACCUGCUCGGAGGGGAUCUUCAACUCCCGGGUGGCGAAGACUGUCCCAUCUGCCCCAACUUUGAAGUCCAUGCUGUUGGUCUCAUAUUGUGUCAACAGAGGAUUGAGCAUCA

Molecular target: T1, UNK ZnF1-3 (human, UniProt Q9C0B0 31-174)
T1 sequence: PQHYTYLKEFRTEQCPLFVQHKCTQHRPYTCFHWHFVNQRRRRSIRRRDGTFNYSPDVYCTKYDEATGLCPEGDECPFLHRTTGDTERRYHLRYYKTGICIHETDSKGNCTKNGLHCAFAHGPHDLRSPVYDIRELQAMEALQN
Test: nsRBNS (natural sequence RNA bind-n-seq); RBNS binding buffer (assumed for nsRBNS): 25 mM Tris pH 7.5, 150 mM KCl, 3 mM MgCl2, 0.01% Triton X-100, 500 ug/ml BSA, 20 U/ml SUPERase-In, 4 C; UNK is unkempt and MSI1 is Musashi-1; names of the RNAs are library labels; protein concentration not given here; high values mean tight binding

Row | Binder | binding signal
1 | B1 | 1.28 enrichment R
2 | B2 | 1.56 enrichment R
3 | B3 | 1.1 enrichment R
4 | B4 | 1.21 enrichment R
5 | B5 | 1.38 enrichment R
6 | B6 | 1.15 enrichment R
7 | B7 | 2.28 enrichment R
8 | B8 | 2.06 enrichment R
9 | B9 | 0.85 enrichment R
10 | B10 | 1.26 enrichment R
11 | B11 | 0.868 enrichment R
12 | B12 | 2.04 enrichment R
13 | B13 | 1.37 enrichment R
14 | B14 | 1.34 enrichment R
15 | B15 | 1.21 enrichment R
16 | B16 | 0.634 enrichment R
17 | B17 | 0.636 enrichment R
18 | B18 | 0.521 enrichment R
19 | B19 | 0.697 enrichment R
20 | B20 | 1.84 enrichment R
21 | B21 | 0.319 enrichment R
22 | B22 | 0.848 enrichment R
